# From patent US20250152759A1, “SINGLE-DOMAIN ANTIBODIES AND VARIANTS THEREOF AGAINST MET” (Wisconsin Alumni Research Foundation, priority 2023, published 2025)
# B1: 1E7-Fc: 1E7 VHH expressed as a bivalent human Fc fusion protein, SEQ ID NO:28 (protein)
# chain: METDTLLLWVLLLLAAQPAMAAGSEVQLVESGGGLVQPGGSLRLSCEASGFNFERYDMSWVRQAPGKGPEWVSRLNSFGRSTYYLDSVKGRFTVSRDNAQNMLYLQMNNLKPEDTAVYYCARSTDVSPGLSSWWTYEYDVWGQGTQVTVSSGPGGQGTGPGGS[human IgG1 Fc with changes not spelt out]
# modifications: bivalent Fc dimer
# Legend:
# [1] = test system: Detroit 562 and T-47D cells; experiment: Proliferation assay (Cell Counting Kit-8), Detroit 562 and T-47D; format: cell-based, human; conditions: 72 h, high concentrations
# Method: (§1) To determine if 1E7-Fc by itself was therapeutic and inhibited MET signaling, both cell proliferation assays and western blotting examining MET downstream signaling were evaluated in Detroit […] cell and T-47D as a negative control. The MET tyrosine kinase inhibitor capmatinib was used as a positive control for MET downstream signaling.
# (§2) Cells were plated in 96-well plates at densities ranging from 3,000 to 6,000 cells per well according to each cell growth rate. After overnight incubation, cells were treated with indicated doses of 1E7-Fc or control (PBS) and incubated for 72 h. After 72 h of drug treatment, Cell Counting Kit-8 reagent was added (Dojindo Molecular Technologies) and absorbance measured at 450 nm on a SpectraMax i3 plate reader (Molecular Devices). The absorbance of treated wells was normalized to control wells, and the half-maximal inhibitory concentration (IC50) values were calculated using GraphPad Prism.
# [2] = test system: MET, AKT and ERK phosphorylation; experiment: Immunoblot of MET downstream signaling, Detroit 562 and T-47D; format: cell-based, human
# Method: as §1
# Cells were seeded in 10-cm dishes and treated with either control (i.e., PBS), 10 nM, or 100 nM 1E7-Fc when cells reached about 75% confluency, and then cells were harvested 4, 24, or 48 h after treatment. Capmatinib (5 nM) was used as a positive control for inhibition of MET signaling. Cell lysates were prepared as previously described (Könning et al. 2017). Equal amounts of protein were analyzed by sodium dodecyl-sulfate polyacrylamide gel electrophoresis (SDS-PAGE), transferred to polyvinylidene fluoride membranes, and probed with specific primary antibodies. Targets were detected with horseradish peroxidase (HRP)-conjugated secondary antibodies (BioRad) using Enhanced Chemiluminescence western blot substrates (Pierce) and imaged on a LI-COR Odyssey Fc. The specific antibodies are as listed: MET, phospho-MET (Tyr1234/1235), AKT, phosphor-AKT (Ser473), p44/42 MAPK (Erk1/2), phosphor-p44/42 MAPK (Erk1/2) *Thr202/Try204), GAPDH.
# [3] = test system: EBC-1, UW-Lung 21, HeLa WT and HeLa MET KO cells; experiment: Cell proliferation assay (Cell Counting Kit-8), NSCLC and HeLa cell lines; format: cell-based, human; conditions: panel of four cell lines, 72 h treatment
# Method: (§3) To determine if 1E7-Fc by itself was a therapeutic and inhibited MET signaling, as has been seen with other MET antibodies such as onartuzumab and emibetuzumab (De Mello et al. 2020), we performed a cell proliferation assay and Western blot to query effects of 1E7-Fc on cell behavior and downstream signaling pathways. Cell viability was measured using a panel of the same four cell lines. […] In contrast, treatment with the FDA-approved MET TKI, capmatinib, blocked MET, AKT, and ERK phosphorylation, as anticipated (FIG. 4B).
# as §2, with “Twenty-four hours after-plating,” for “After overnight incubation,”, “h” for “h of”, “wells” for “wells,”
# [4] = In vivo stability of 1E7-Fc, serum dilution ELISA on human MET; design: species or system mice; conditions: tail vein
# Method: An in vivo stability assay was performed to characterize the viability of 1E7-Fc to stay in the body for therapy and imaging applications. Nontumor bearing mice were injected with 1E7-Fc via the tail vein, and the blood was collected at different time points across a month. Serum was obtained from the collected blood and assessed for levels of residual 1E7-Fc that binds to human MET on a dilution ELISA. Appreciable binding occurred up to 1 week (FIG. 7D).
# Five-week-old BALB/cJ white mice were purchased from Envigo for in vivo stability study. Mice were intravenously injected through the tail vein with 1E7-Fc (100 μg in 100 μl PBS). Mice were euthanized, and whole blood was collected at 10 different time points. Mouse sera were collected by centrifuging the whole blood at 1500×g for 10 minutes. The sera were then used in ELISA to evaluate their binding to human c-MET.
# [5] = test system: human MET and other human surface proteins; experiment: BLI specificity of 1E7-Fc with human MET and other human surface proteins; format: binding; conditions: FIG. 4A
# Source text: (§4) 1E7 was cloned into an Fc vector to create a bivalent human Fc construct, 1E7-Fc, with an increased molecular weight of 86.6 kDa. […] We confirmed that 1E7-Fc only binds to human MET by performing BLI with human MET and other human surface proteins. […] Two MET-altered NSCLC cell lines, EBC1 and UWLung 21, and two HeLa cell lines, wild type (HeLa WT) and MET knockout (HeLa MET KO), were stained with 1E7-Fc followed by a secondary antibody that was fluorophore labeled for flow cytometry. […] Live cell immunofluorescent imaging was next performed to determine whether 1E7-Fc was internalized in MET-altered NSCLC cell lines after binding to the MET receptor. The cells were incubated with a green CellMask Plasma Membrane Stain followed by treatment with Alexa Fluor™ 647-labeled 1E7-Fc. […] Distinct accumulation within the internal cellular components of MET expressing cell lines is indicative of the internalization of 1E7-Fc (FIG. 4C).
# Biolayer interferometry was done with the Octet R8 (Sartorius) instrument. Biotinylated human c-MET was captured on SAX (high precision streptavidin) biosensor. 1 to 4 serial dilutions of 1E7-Fc in 1% BSA starting at 1 μM were bound to the biosensor tip with c-MET.
# [6] = test system: MET, AKT and ERK phosphorylation; experiment: Western blot of MET signaling, NSCLC and HeLa cell lines; format: cell-based, human
# Method: as §3
# Cells were seeded in 10 cm dishes and treated with either control (PBS), 10 nM, or 100 nM 1E7-Fc when cells were reached about 75% confluency, and then cells were harvested 4 h after treatment. Five nM Capmatinib was used as a positive control. Cell lysates were generated as previously described (SenthilKumar et al. 2020).
# [7] = test system: Detroit 562 and T-47D cells; experiment: Immunofluorescent live cell imaging, Detroit 562 and T-47D; format: cell-based, human
# Method: Immunofluorescent live cell imaging was performed on high MET expressing cell line, Detroit 562, to assess the internalization of 1E7-Fc across the plasma membrane.
# Cells were seeded into an eight-well chamber coverslip slide (#1.5 thickness) at approximately 40,000 to 80,000 cells per well depending on cell type. After incubating at 37° C. for 48 h, cells were stained with a green CellMask Plasma Membrane stain (C37608, Thermo Fisher Scientific) and blue Hoechst 33342 (62249, Thermo Fisher Scientific) in accordance with manufacturer procedure. The stained cells were then placed in a temperature- and CO2-controlled Tokei Hit Biochamber and imaged using a Nikon Ti2 Spinning Disk Confocal Microscope at an objective of 40X with excitation laser 405, 488, and 640 nM. At the beginning of the imaging sequence, cells were treated with 1 μM Alexa Fluor 647-labeled 1E7-Fc antibody (A20186, Thermo Fisher Scientific) for 15 min. The cell medium was then suctioned out and phenol red-free DMEM media was added (21-064-029, Thermo Fisher Scientific). Images were acquired immediately prior to treatment and every 5 min for the first 3 h post-treatment, and then every 30 min for the next 9 h. Images were processed using Nikon NIS-Elements imaging software and ImageJ.
# MET expressing cells = experiment: Flow cytometry of 1E7-Fc on NSCLC and HeLa cell lines; format: cell-based, human; conditions: 1 μg/mL, 1 h
# Source text: as §4
# Cells were harvested with Trypsin for 5 minutes at 37C and 5% CO2. 1×10^6 cells per condition were incubated with 1 ug/mL of 1E7 Fc for 1 h on ice. Cells were washed and stained with 5 μg/mL Goat anti-Human IgG Fc, PE for 1 h on ice. Cells were washed three times and resuspended in flow cytometry staining buffer (eBioscience). Data was collected with the Attune Flow Cytometer (ThermoFischer), and at least 10 000 viable cells were gated and analyzed with FlowJo software.
# [8] = test system: MET expressing cell lines; experiment: Live cell confocal microscopy, binding and internalization of 1E7-Fc; format: cell-based, human; conditions: 2 h post-treatment
# Source text: as §4
# Cells were seeded into an 8 well chamber coverslip slide (#1.5 thickness) at approximately 20,000 to 40,000 cells per well depending on cell type. After incubating at 37C for 48 hours, cells were stained with a green CellMask™ Plasma Membrane stain (C37608, Thermo Fisher Scientific) in accordance with manufacturer procedure. The stained cells were then placed in a temperature and CO2 controlled Tokei hit Biochamber and set to be imaged every minute for 2 hours using a Nikon Ti2 Spinning Disk Confocal Microscope at an objective of 40x with 488 nm and 547 nm laser settings. At the beginning of the imaging sequence, cells were treated with 1 mM Alexa Fluor™ 647-labeled 1E7-Fc antibody (A20186, Thermo Fisher Scientific) for 10 m. The cell media was then suctioned out and phenol red free DMEM media was added (21-063-029, Thermo Fisher Scientific). Images were processed using Nikon NIS-Elements imaging software and ImageJ.
# [9] = test system: MET expressing HNSCC cells; experiment: Flow cytometry of 1E7-Fc on HNSCC cell lines; format: cell-based, human; conditions: 100 nM
# Method: Western Blot was conducted to evaluate MET and phosphorylation of MET (p-MET) expression on a panel of HSNCC cell lines grown under normal growth cell culture. […] Breast cell line T-47D was identified to have no MET or p-MET expression (FIG. 9A). IHC staining of MET in the cell lines grown as xenografts confirmed our western blot findings, with only Detroit 562 showing significant MET staining (FIG. 9B). Flow cytometry was performed to confirm the specificity of our camelid antibody to MET.
# Single cell suspension of each cell line was prepared by trypsinization. About 0.5×10^6 cells were incubated with 100 nM of 1E7-Fc for 30 min on ice. Then cells were washed and stained with 1 μg/mL Goat anti-Human IgG Fc, PE (eBioscience) for 30 min on ice in the dark. Cells were washed three times and resuspended in flow cytometry staining buffer (2% FBS and 0.1% NaN3 in PBS). Data was collected with the Attune Flow Cytometer (Thermo Fisher), and at least 10,000 viable cells were gated and analyzed with FlowJo.
molecule,measurement,setting,value
B1,effect on cell viability / cytotoxicity,[1],no cytotoxic effects; also recorded: no impact on cell viability
same,function on MET signaling pathway (agonist/antagonist),[2],neither as agonist nor antagonist
same,effect on MET phosphorylation or downstream signaling of AKT and ERK,"[2]; 10 nM or 100 nM, 4, 24 or 48 h",no inhibitory effects
same,effect on cell viability,[3],no effect on cell viability; also recorded: does not impact cell survival
same,In vivo stability,"[4]; FIG. 7D legend, mice, serum dilution ELISA",around 3 days
same,time up to which appreciable binding of serum 1E7-Fc to human MET occurred,"[4]; nontumor bearing mice, 100 μg",up to 1 week
same,"binding specificity, MET versus other surface proteins",[5],binds specifically to MET; also recorded: binding only to MET
same,effect on phosphorylation of MET and downstream signaling of AKT and ERK,"[6]; 10 nM or 100 nM, 4 h",did not impact
same,biological effect on MET-expressing cells (agonist/antagonist),[6]; conclusion from proliferation assay and Western blot,no biological effect
same,time after exposure up to which internalization was visualized,[7]; Detroit 562,up to 8 h
same,time of exposure within which binding occurred,[7]; Detroit 562,≤ 30 min
same,clearance from cellular compartment,"[7]; Detroit 562, by 12 h",rapid clearance
same,binding and internalization,"[7]; T-47D, negative control cell line",No binding nor internalization
same,binding by flow cytometry,MET expressing cells; EBC-1 (MET amplified),selectively bind; also recorded: bound tightly
same,binding by flow cytometry,MET expressing cells; HeLa MET KO,did not bind
same,binding by flow cytometry,MET expressing cells; HeLa WT,moderately
same,binding by flow cytometry,MET expressing cells; UW-Lung 21 (MET exon 14 mutated),selectively bind; also recorded: bound tightly
same,cell surface binding and internalization,"[8]; EBC-1, Alexa Fluor 647-labeled",high binding to the cell surface (green) with internalization
same,cell surface binding and internalization,[8]; HeLa MET KO,no binding
same,cell surface binding and internalization,[8]; HeLa WT,some binding
same,cell surface binding and internalization,"[8]; UW-Lung 21, Alexa Fluor 647-labeled",high binding to the cell surface (green) with internalization
same,binding by flow cytometry,[9]; Detroit 562 (high MET),high binding affinity and specificity; also recorded: higher binding
same,binding by flow cytometry,[9]; other low MET expressing cell lines,minimal to no binding

# “Also recorded” adds a separate entry of the source.
